± gives the standard deviation of the averaged measurements. Over roughly 33,000 sequences, “E-score (dimensionless, -0.5 to 0.5)” has its median near -0.046; the highest 2% begin near 0.36. Some of the results follow.
System: T1, SpTbr T-box DNA-binding domain (GST fusion)
T1 sequence: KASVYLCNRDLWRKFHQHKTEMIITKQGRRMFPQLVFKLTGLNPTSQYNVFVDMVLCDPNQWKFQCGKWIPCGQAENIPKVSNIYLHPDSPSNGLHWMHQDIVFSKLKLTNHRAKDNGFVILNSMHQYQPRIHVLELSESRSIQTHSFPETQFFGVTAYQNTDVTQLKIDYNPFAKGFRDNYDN
Assay: PBM E-score of 8-mer (E-score (dimensionless, -0.5 to 0.5)); Tbr is Tbrain of the sea star Patiria miniata (Pm) or the sea urchin Strongylocentrotus purpuratus (Sp); higher = stronger binding preference; most listed sequences are background and not binding sites
Conditions: the construct has about 5 more residues each side
Procedure, shortened: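 Primer extension turned Universal Agilent oligonucleotide arrays double-stranded. They were incubated with 200 nM protein in PBS (pH 7.5); the protein was a GST-fused Tbr T-box DNA-binding domain expressed in BL21 E. coli at 20 °C and purified on glutathione. Every ungapped 8-mer was scored from the scanned, quantified probe intensities, and the Universal PBM Analysis Suite gave each an enrichment E-score averaged over duplicate arrays.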

Sequence	PBM E-score of 8-mer
AACCGTCA	0.158 ± 0.01
CTGGCGAC	0.14 ± 0.0022
AACCTTCG	-0.0878 ± 0.018
TTGTCAAA	0.0897 ± 0.09
GTACTCAC	0.151 ± 0.1
AAGTAAAG	-0.1625 ± 0.00038
TAGGTAGA	-0.0909 ± 0.078
ATTCCCAG	-0.277 ± 0.057
CCTTCAAA	-0.22 ± 0.0023
GTCAATGA	0.078 ± 0.036
ACTGAGCT	-0.112 ± 0.04
CTGAGATA	-0.0665 ± 0.054
AAAGACTT	-0.322 ± 0.041
CAAGGCGC	0.244 ± 0.051
AAAATGCG	-0.0352 ± 0.056
GGGTGCAA	0.271 ± 0.017
TAAAGATA	-0.108 ± 0.028
GGGAAAGA	-0.192 ± 0.041
CTTCACTA	0.0992 ± 0.0044
ACGCTAGA	-0.0158 ± 0.03
ACCGAGGA	-0.0878 ± 0.039
TAGTGCCA	0.195 ± 0.009
ATCAAGTA	-0.0375 ± 0.031
TAGTAAAA	-0.123 ± 0.027
CCATACGA	-0.166 ± 0.025

Sequence	PBM E-score of 8-mer
ACAATCTG	-0.0048 ± 0.032
AGTATGTA	-0.11 ± 0.017
ACACCGGC	0.185 ± 0.022
CGACTGTA	-0.133 ± 0.081
AAGCAGTC	-0.178 ± 0.019
TATCCTAA	0.0265 ± 0.058
CCAGCTCC	-0.184 ± 0.037
GAATTGCA	0.0351 ± 0.036
ATACCTAC	-0.163 ± 0.011
GATGACCC	0.12 ± 0.0038
ACTCGAAC	-0.0956 ± 0.095
AGACTGCG	0.0627 ± 0.0045
TATTCTGA	0.0251 ± 0.075
CTATGGAG	-0.197 ± 0.03
AAGTTTAC	0.0364 ± 0.022
GCTTGAGA	-0.073 ± 0.0077
AGTACGGC	-0.21 ± 0.041
ATAGTTTA	-0.165 ± 0.026
CTAGACGA	-0.055 ± 0.085
ACACCGGG	0.0988 ± 0.0072
AGACTGGG	-0.319 ± 0.017
ATAAAGCA	-0.0541 ± 0.0029
ATATCAAG	-0.169 ± 0.098
CATACAGG	-0.183 ± 0.069
AGATGTAA	0.0577 ± 0.039

Sequence	PBM E-score of 8-mer
CCCCTGAG	-0.123 ± 0.053
CTATCATC	-0.0143 ± 0.024
ACTGAGGG	-0.0572 ± 0.017
CGGTCCAA	-0.173 ± 0.065
AGGAACTA	-0.0834 ± 0.063
ATAGGAAG	-0.202 ± 0.0077
ATGCCAGG	-0.0854 ± 0.07
CGTGATCA	0.212 ± 0.02
AATCGTTA	0.168 ± 0.012
TCCACGGA	-0.0375 ± 0.11
ATATGCCC	-0.151 ± 0.026
GGCGCTGA	0.155 ± 0.0088
ATCATGGC	0.0527 ± 0.065
ACATGTCG	0.193 ± 0.043
GTTTTCAA	-0.0562 ± 0.0072
GGAGCATA	-0.0848 ± 0.03
CCGCCACG	0.0921 ± 0.016
CACCGTTC	0.0585 ± 0.0023
ACTTGGTC	0.0521 ± 0.045
ACTATGGG	-0.00804 ± 0.0047
AGTCGTCC	-0.204 ± 0.026
ACTGCCAC	0.262 ± 0.018
AAGCATAC	-0.132 ± 0.0093
CCAACCGG	-0.0391 ± 0.027
AGTTCCTC	-0.102 ± 0.057

Sequence	PBM E-score of 8-mer
TGGACCAA	-0.171 ± 0.038
ATAGACAC	0.122 ± 0.03
AGATACAC	0.142 ± 0.054
ACCGGGCT	-0.179 ± 0.022
GCCGATCA	0.00117 ± 0.051
GATTCGAA	0.063 ± 0.011
ACTAATTA	-0.108 ± 0.018
CACCATCC	0.15 ± 0.015
CATCACAC	0.451 ± 0.0075
AGATTGCT	-0.171 ± 0.029
AAATCAGC	-0.00937 ± 0.072
GAACAATC	0.00187 ± 0.0055
CATGCAGG	-0.0914 ± 0.0066
CTTCGCCC	-0.0235 ± 0.028
AGTGATGC	0.0277 ± 0.014
GTTGAATA	-0.136 ± 0.0064
AAATGAGC	-0.157 ± 0.013
ATATCCAC	0.0331 ± 0.025
CGTACCTC	-0.108 ± 0.025
ATTCGGCG	0.0846 ± 0.0025
AGGCGTAT	0.0269 ± 0.047
CAACGCAA	0.156 ± 0.004
GGCGAACA	0.137 ± 0.018
ACATGGGG	-0.06449 ± 0.00059
CCCGGCGG	-0.0358 ± 0.092

Sequence	PBM E-score of 8-mer
CGTCGTCC	-0.141 ± 0.0069
GCTAACAC	0.417 ± 0.0044
CCCATAAG	-0.12 ± 0.083
ACCCTAGG	0.146 ± 0.046
AGCCTCCT	-0.124 ± 0.048
AATGGCTA	-0.134 ± 0.02
GGGTATGA	-0.0544 ± 0.061
CCAAAAGA	-0.0816 ± 0.016
AGGCGAGC	-0.233 ± 0.11
CACCGACG	0.233 ± 0.041
GTTAGCAA	0.281 ± 0.014
AACCAGGC	-0.0137 ± 0.052
TCGTGAGA	0.2742 ± 0.0015
CTCGCACC	0.451 ± 0.016
AAAGGCGC	0.143 ± 0.02
TCAAGTCA	0.0173 ± 0.035
GTCCGGCA	-0.208 ± 0.052
ACGTTTTC	0.0181 ± 0.036
AAGAATTC	-0.22 ± 0.027
GTCTGAAC	-0.179 ± 0.056
AAGGCGAA	-0.0734 ± 0.06
AGGCAACC	-0.0351 ± 0.077
ATTAAAAA	-0.19 ± 0.055
ATATGAAC	-0.242 ± 0.0091
ACCGGCAT	-0.035 ± 0.036

Sequence	PBM E-score of 8-mer
CCAGTGAC	0.2 ± 0.064
GTCACGGA	0.02225 ± 0.00018
CAGATTGG	-0.222 ± 0.04
AAGAAGTA	-0.119 ± 0.082
AAGATACA	-0.0756 ± 0.027
ATATGGGG	-0.0719 ± 0.065
AGAGAGCG	-0.156 ± 0.15
CACCAAGC	0.129 ± 0.017
CAGTCCCC	0.0758 ± 0.019
ATGGGGGC	-0.283 ± 0.021
GGTCTGTA	-0.105 ± 0.027
CACAAATG	0.0142 ± 0.013
ACTAGACG	-0.0329 ± 0.087
GCGGACCC	-0.0093 ± 0.057
GTACGGCA	-0.125 ± 0.056
CAACGGAA	-0.0672 ± 0.0065
GCTAGTGA	0.107 ± 0.08
CCGGTTAG	-0.097 ± 0.034
CGGCGCAG	-0.146 ± 0.01
ACCCTCAT	-0.034 ± 0.0071
AGTACCAC	0.0848 ± 0.013
AACGAGTG	0.207 ± 0.035
TAACAGGA	0.0565 ± 0.05
ATACTCCG	-0.0529 ± 0.022
GCCGATAC	-0.0846 ± 0.051

Sequence	PBM E-score of 8-mer
CGAAATGC	-0.00805 ± 0.018
CACGCATC	0.29 ± 0.06
CAACAATA	0.0592 ± 0.055
ACCCCCCT	-0.162 ± 0.03
TACTGTCA	0.225 ± 0.018
AGGATTCA	0.00326 ± 0.075
CTGGAGTC	-0.327 ± 0.041
CTCCAAGA	-0.0401 ± 0.032
CTACCGAA	-0.121 ± 0.044
CGCCTAAC	0.0936 ± 0.028
GGCTAGTA	-0.0663 ± 0.054
AGTTAGGA	-0.154 ± 0.055
ACTTCCCG	0.194 ± 0.014
ACCCTCGT	0.0993 ± 0.059
AATTGCGC	0.0489 ± 0.068
CATGGTAA	-0.0644 ± 0.039
ACGTATAC	0.115 ± 0.0037
CTTTCCAC	0.168 ± 0.052
AGGAATGA	-0.0977 ± 0.051
GTGCGACA	0.398 ± 0.012
AGTTAGTC	-0.00951 ± 0.033
ACGCAAGT	0.133 ± 0.0079
